Assay [1] deals with T1, HBoV1 NS1-100 with Flag tag (human bocavirus 1 (HBoV1)) (UniProt D0EZM8).
T1 sequence: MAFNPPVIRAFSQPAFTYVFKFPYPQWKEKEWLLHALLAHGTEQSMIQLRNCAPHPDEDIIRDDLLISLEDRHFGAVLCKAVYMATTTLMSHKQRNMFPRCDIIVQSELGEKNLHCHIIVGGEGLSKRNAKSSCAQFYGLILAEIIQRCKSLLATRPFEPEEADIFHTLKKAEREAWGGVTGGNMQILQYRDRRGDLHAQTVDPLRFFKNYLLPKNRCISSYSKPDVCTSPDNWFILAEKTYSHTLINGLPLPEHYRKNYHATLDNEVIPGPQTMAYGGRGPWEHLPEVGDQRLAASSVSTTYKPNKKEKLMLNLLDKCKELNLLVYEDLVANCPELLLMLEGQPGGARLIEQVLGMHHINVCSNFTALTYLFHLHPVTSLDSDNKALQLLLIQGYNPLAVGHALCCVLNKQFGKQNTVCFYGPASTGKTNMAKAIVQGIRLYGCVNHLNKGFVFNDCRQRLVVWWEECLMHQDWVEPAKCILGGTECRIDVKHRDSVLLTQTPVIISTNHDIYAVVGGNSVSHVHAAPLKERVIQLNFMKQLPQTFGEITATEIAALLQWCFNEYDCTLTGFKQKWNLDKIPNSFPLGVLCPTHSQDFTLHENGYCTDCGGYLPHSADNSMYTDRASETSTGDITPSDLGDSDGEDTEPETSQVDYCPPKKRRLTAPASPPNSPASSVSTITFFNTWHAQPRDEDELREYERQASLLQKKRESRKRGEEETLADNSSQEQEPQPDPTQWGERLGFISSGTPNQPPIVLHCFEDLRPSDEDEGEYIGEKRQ
As to the kind of experiment: co-IP; HEK293 cells transfected with pCI-optNS1^Flag or pCI; lysate treated with 250 U of Benzonase; anti-Flag affinity resin at 4°C overnight; Western blotting. Background: A western blot detects proteins with antibodies after separation by electrophoresis.

Amino acid sequences for entries named in this document (tags omitted). A change or cut given only in a name is not applied to a line headed by its entry.
UniProt P12956: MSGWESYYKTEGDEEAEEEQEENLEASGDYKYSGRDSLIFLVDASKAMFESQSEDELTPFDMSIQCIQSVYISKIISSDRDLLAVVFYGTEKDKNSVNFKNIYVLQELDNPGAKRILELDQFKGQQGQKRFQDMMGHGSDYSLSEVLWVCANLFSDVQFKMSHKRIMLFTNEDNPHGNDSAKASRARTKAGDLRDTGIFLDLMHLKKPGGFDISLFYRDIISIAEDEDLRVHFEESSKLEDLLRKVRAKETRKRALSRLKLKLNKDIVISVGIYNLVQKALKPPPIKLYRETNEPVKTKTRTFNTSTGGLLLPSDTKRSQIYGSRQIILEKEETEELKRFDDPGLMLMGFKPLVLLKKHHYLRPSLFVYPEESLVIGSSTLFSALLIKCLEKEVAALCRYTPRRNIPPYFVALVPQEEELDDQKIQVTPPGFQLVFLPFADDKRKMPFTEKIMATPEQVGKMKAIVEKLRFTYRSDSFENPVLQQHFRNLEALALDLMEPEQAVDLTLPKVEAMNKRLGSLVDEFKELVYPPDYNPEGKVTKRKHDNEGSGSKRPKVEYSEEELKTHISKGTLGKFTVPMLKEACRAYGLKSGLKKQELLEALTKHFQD
UniProt P11142: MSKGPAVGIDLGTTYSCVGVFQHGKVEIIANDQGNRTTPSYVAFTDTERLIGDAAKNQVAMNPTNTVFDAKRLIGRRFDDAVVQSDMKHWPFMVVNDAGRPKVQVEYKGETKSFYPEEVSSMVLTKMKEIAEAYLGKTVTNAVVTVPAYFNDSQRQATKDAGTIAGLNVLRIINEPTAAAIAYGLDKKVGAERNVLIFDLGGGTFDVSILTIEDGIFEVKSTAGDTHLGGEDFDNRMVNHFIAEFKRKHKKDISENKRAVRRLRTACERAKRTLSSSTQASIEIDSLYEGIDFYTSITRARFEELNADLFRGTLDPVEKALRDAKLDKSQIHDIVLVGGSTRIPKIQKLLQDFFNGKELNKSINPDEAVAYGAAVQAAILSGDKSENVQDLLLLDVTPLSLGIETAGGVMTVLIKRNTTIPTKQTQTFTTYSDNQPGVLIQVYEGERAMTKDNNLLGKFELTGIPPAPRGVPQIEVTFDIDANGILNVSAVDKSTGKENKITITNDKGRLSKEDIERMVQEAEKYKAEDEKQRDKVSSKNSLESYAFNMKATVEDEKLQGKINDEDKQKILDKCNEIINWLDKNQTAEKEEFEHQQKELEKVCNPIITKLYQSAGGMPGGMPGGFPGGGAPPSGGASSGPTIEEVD
UniProt P13010: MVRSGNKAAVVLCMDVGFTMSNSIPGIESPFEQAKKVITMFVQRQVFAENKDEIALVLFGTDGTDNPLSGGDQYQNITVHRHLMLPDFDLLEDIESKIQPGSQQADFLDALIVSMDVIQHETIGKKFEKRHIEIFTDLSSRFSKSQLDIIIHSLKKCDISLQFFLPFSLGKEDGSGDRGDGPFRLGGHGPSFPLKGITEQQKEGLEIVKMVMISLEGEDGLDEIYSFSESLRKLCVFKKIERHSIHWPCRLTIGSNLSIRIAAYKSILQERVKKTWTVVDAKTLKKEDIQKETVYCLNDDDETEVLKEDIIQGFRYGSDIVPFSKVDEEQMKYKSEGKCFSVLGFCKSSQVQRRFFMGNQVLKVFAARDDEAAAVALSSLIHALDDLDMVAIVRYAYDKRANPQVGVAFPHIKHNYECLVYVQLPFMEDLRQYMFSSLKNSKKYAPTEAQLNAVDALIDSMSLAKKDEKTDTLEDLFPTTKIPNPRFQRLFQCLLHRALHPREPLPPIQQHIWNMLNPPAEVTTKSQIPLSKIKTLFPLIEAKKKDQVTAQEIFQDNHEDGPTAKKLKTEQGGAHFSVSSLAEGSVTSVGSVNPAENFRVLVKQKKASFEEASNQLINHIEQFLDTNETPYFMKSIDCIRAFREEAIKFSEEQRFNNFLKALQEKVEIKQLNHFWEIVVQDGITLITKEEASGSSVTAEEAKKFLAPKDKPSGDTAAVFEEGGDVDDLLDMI
UniProt P11940: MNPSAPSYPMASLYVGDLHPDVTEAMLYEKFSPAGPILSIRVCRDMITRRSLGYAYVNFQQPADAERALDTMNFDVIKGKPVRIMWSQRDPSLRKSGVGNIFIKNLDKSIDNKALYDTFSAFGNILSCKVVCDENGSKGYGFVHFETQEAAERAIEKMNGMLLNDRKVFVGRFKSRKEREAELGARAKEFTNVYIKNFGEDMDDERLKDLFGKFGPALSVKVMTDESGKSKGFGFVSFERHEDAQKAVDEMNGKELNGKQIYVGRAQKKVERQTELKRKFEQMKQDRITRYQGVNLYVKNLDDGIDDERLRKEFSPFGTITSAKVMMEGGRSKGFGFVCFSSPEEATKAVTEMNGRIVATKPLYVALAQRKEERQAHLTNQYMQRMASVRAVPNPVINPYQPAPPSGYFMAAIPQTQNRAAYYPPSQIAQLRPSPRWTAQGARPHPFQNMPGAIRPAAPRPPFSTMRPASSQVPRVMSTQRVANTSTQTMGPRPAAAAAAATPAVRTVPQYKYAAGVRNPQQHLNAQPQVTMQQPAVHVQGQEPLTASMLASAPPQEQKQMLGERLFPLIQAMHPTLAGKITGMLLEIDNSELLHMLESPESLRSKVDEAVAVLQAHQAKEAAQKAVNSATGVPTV
UniProt P27694: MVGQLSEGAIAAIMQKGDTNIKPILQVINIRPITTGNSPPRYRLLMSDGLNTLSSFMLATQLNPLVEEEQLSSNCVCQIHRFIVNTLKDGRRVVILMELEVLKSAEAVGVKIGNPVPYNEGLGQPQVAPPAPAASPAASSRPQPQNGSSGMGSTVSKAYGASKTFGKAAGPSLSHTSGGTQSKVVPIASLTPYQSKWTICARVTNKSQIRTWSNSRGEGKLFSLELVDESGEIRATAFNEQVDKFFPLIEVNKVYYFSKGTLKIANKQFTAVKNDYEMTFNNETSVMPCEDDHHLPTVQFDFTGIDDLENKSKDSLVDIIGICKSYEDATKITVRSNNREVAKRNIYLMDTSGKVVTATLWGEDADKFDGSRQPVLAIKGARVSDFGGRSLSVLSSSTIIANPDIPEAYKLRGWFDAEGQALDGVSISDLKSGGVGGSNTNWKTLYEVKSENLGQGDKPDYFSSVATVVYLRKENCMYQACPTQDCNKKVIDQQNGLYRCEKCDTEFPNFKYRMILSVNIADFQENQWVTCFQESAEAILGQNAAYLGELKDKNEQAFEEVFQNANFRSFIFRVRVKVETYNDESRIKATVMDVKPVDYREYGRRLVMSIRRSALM

Assay [2] deals with T1, HBoV1 NS1-100 with Flag tag (human bocavirus 1 (HBoV1)). As to the kind of experiment: co-IP; HEK293 cells transfected with pCI-optNS1^Flag or pCI; lysis buffer 50 mM Tris pH 8.0, 150 mM NaCl, 1% NP-40, without Benzonase; anti-Flag affinity resin at 4°C overnight; Western blotting.
Assay [3] concerns the target T2, HBoV1 NS1-70 with Flag and His tags (human bocavirus 1 (HBoV1)) (UniProt D0EZM8).
T2 sequence: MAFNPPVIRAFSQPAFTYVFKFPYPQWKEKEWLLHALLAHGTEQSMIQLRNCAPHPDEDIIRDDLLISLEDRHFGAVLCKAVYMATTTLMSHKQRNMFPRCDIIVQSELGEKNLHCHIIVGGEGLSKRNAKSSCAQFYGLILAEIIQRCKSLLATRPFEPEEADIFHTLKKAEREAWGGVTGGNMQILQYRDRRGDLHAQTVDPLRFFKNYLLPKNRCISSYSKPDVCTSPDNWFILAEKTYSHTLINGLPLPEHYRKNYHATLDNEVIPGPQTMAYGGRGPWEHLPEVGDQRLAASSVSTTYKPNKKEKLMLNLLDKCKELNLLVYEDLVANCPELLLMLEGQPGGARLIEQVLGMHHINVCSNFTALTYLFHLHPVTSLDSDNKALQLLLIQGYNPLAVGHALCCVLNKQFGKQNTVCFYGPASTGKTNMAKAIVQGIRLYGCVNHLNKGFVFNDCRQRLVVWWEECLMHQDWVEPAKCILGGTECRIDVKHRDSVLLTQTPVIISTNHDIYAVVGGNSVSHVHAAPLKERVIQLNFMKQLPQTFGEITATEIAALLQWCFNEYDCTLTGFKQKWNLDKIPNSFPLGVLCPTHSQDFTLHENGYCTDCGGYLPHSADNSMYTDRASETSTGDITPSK
As to the kind of experiment: pull-down; both purified.

No constants are given. Whether binding was seen depends on the method and setting. For some of these results: In cells and extracts the contact can be indirect. Some results given as binding are weak or reduced against the parent protein; the word gives no strength. Sequences can lack the tags named with a protein.

For “DNA-PKcs (DNA-dependent protein kinase catalytic subunit) (from UniProt P78527 1-4128)”, the binding result in assay [1] and in assay [2] was “binds” throughout.
Consider “DNA-binding domain (SAP) of Ku70 domain C with Strep-tag II (from UniProt P12956 535-609) (domain or fragment)”, for which the binding result in assay [3] is on record as “no binding (tested: 2 μg)”.
For HSPA8 (from UniProt P11142 1-646), the binding result in assay [1] and in assay [2] was “binds” throughout.
For Ku70 (from UniProt P12956 1-609), the binding entry in assay [1] and in assay [2] was “binds” throughout.
For “Ku70 domain A (α/β domain) with Strep-tag II (from UniProt P12956 1-250) (domain or fragment)”, the binding result in assay [3] is “binds”.
Take “Ku70 domain C (C-terminal domain) with Strep-tag II (from UniProt P12956 437-609) (domain or fragment)”: in assay [3], the binding entry is reported as “binds”.
Still for that read-out and setting: for “Ku70/Ku80 heterodimer (from UniProt P12956 1-609; P13010 1-732) (complex)” the value was “binds”; for “Ku80 with GST tag (from UniProt P13010 1-732)”, “no binding (tested: 2 μg)”.
Turning to PABPC1 (from UniProt P11940 1-636), the binding entry in assay [2] was “binds”.
For RPA1 (from UniProt P27694 1-616), the binding result in assay [1] and in assay [2] was “binds” in each case.
In the case of “purified HSPA8 (from UniProt P11142 1-646)”, in assay [3], the binding entry is recorded as “binds”.
On the same count and under the same terms, then “terminal arm of Ku70 domain C (C-Arm) with Strep-tag II (from UniProt P12956 437-534) (domain or fragment)”, with “no binding (tested: 2 μg)”.

B1: MCM3 (protein, UniProt P25205 1-808)
chain: MAGTVVLDDVELREAQRDYLDFLDDEEDQGIYQSKVRELISDNQYRLIVNVNDLRRKNEKRANRLLNNAFEELVAFQRALKDFVASIDATYAKQYEEFYVGLEGSFGSKHVSPRTLTSCFLSCVVCVEGIVTKCSLVRPKVVRSVHYCPATKKTIERRYSDLTTLVAFPSSSVYPTKDEENNPLETEYGLSVYKDHQTITIQEMPEKAPAGQLPRSVDVILDDDLVDKAKPGDRVQVVGTYRCLPGKKGGYTSGTFRTVLIACNVKQMSKDAQPSFSAEDIAKIKKFSKTRSKDIFDQLAKSLAPSIHGHDYVKKAILCLLLGGVERDLENGSHIRGDINILLIGDPSVAKSQLLRYVLCTAPRAIPTTGRGSSGVGLTAAVTTDQETGERRLEAGAMVLADRGVVCIDEFDKMSDMDRTAIHEVMEQGRVTIAKAGIHARLNARCSVLAAANPVYGRYDQYKTPMENIGLQDSLLSRFDLLFIMLDQMDPEQDREISDHVLRMHRYRAPGEQDGDAMPLGSAVDILATDDPNFSQEDQQDTQIYEKHDNLLHGTKKKKEKMVSAAFMKKYIHVAKIIKPVLTQESATYIAEEYSRLRSQDSMSSDTARTSPVTARTLETLIRLATAHAKARMSKTVDLQDAEEAVELVQYAYFKKVLEKEKKRKKRSEDESETEDEEEKSQEDQEQKRKRRKTRQPDAKDGDSYDPYDFSDTEEEMPQVHTPKTADSQETKESQKVELSESRLKAFKVALLDVFREAHAQSIGMNRLTESINRDSEEPFSSVEIQAALSKMQDDNQVMVSEGIIFLI
With B1, the binding result in assay [1] and in assay [2] was “binds” in each case.

B2: ORC3 (protein, UniProt Q9UBD5 1-711)
chain: MATSSMSKGCFVFKPNSKKRKISLPIEDYFNKGKNEPEDSKLRFETYQLIWQQMKSENERLQEELNKNLFDNLIEFLQKSHSGFQKNSRDLGGQIKLREIPTAALVLGVNVTDHDLTFGSLTEALQNNVTPYVVSLQAKDCPDMKHFLQKLISQLMDCCVDIKSKEEESVHVTQRKTHYSMDSLSSWYMTVTQKTDPKMLSKKRTTSSQWQSPPVVVILKDMESFATKVLQDFIIISSQHLHEFPLILIFGIATSPIIIHRLLPHAVSSLLCIELFQSLSCKEHLTTVLDKLLLTTQFPFKINEKVLQVLTNIFLYHDFSVQNFIKGLQLSLLEHFYSQPLSVLCCNLPEAKRRINFLSNNQCENIRRLPSFRRYVEKQASEKQVALLTNERYLKEETQLLLENLHVYHMNYFLVLRCLHKFTSSLPKYPLGRQIRELYCTCLEKNIWDSEEYASVLQLLRMLAKDELMTILEKCFKVFKSYCENHLGSTAKRIEEFLAQFQSLDETKEEEDASGSQPKGLQKTDLYHLQKSLLEMKELRRSKKQTKFEVLRENVVNFIDCLVREYLLPPETQPLHEVVYFSAAHALREHLNAAPRIALHTALNNPYYYLKNEALKSEEGCIPNIAPDICIAYKLHLECSRLINLVDWSEAFATVVTAAEKMDANSATSEEMNEIIHARFIRAVSELELLGFIKPTKQKTDHVARLTWGGC
Take B2: the binding entry in assay [1] and in assay [2] was “binds” each time.

B3: SNW1 (protein, UniProt Q13573 1-536)
chain: MALTSFLPAPTQLSQDQLEAEEKARSQRSRQTSLVSSRREPPPYGYRKGWIPRLLEDFGDGGAFPEIHVAQYPLDMGRKKKMSNALAIQVDSEGKIKYDAIARQGQSKDKVIYSKYTDLVPKEVMNADDPDLQRPDEEAIKEITEKTRVALEKSVSQKVAAAMPVRAADKLAPAQYIRYTPSQQGVAFNSGAKQRVIRMVEMQKDPMEPPRFKINKKIPRGPPSPPAPVMHSPSRKMTVKEQQEWKIPPCISNWKNAKGYTIPLDKRLAADGRGLQTVHINENFAKLAEALYIADRKAREAVEMRAQVERKMAQKEKEKHEEKLREMAQKARERRAGIKTHVEKEDGEARERDEIRHDRRKERQHDRNLSRAAPDKRSKLQRNENRDISEVIALGVPNPRTSNEVQYDQRLFNQSKGMDSGFAGGEDEIYNVYDQAWRGGKDMAQSIYRPSKNLDKDMYGDDLEARIKTNRFVPDKEFSGSDRRQRGREGPVQFEEDPFGLDKFLEEAKQHGGSKRPSDSSRPKEHEHEGKKRRKE
As for B3, the binding result in assay [1] and in assay [2] was “binds” in each case.

The values are drawn from publication PMC8865542.
